The chains are these.
B1: 209264 (protein)
chain: IAAKFDRIQSIADEVILILPNLTEEQRNAFRQSLSDDPSVSEEVLYEALYLNYSQAPK
B2: 208854 (protein)
chain: IAAKFDEAQQKAFYWILHLRNLTEEQRNAFIQSLRDDPSVSTEVLGEALKLNQSQAPKIAAKFDEAQWAAFYEIVHLPNLTEEQREAFIQSLWDDPSVSLEVLGEAQKLNDSQAPK
B3: SEQ ID NO 7 (designed binder)
chain: IAAKFDEAQWAAFYEIVHLPNLTEEQREAFIQSLWDDPGVSLEVLGEAQKLNDSQAPKIAAKFDEAQQAAFYEILHLPNLTEAQRNHFIQRLRDDPSVSLVVLGQAQKLNDSQAPK
B4: SEQ ID NO 15 (designed binder)
chain: IAAKFDEAQEAAFWEIQHLPNLTEEQRWAFIWSLADDPSVSLEVLGEAQKLNDSQAPKIAAKFDEAQQAAFYEILHLPNLTEWQRNYFIQKLRDDPSVSLWVLGQAQILNDSQAPK
B5: affinity ligand 209621 (SEQ ID NO: 13) (designed binder)
chain: IAAKFDEAQTAAFWEIEHLPNLTEEQRWAFIWSLADDPSVSLEVLGEAQKLNDSQAPKIAAKFDEAQQAAFYEILHLPNLTEWQRNYFIQKLRDDPSVSLWVLGQAQILNDSQAPK
B6: SEQ ID NO 17 (designed binder)
chain: IAAKFDEAQEAAFWEIQHLPNLTEEQRWAFIWSLADDPSVSLEVLGEAQKLNDSQAPKIAAKFDEAQQAAFYEILHLPNLTEHQRNLFIQRLRDDPSVSLWVLGQAQILNDSQAPK
B7: SEQ ID NO 14 (designed binder)
chain: IAAKFDEAQEAAFWEIQHLPNLTEEQRWAFIWSLADDPSVSLEVLGEAQKLNDSQAPKIAAKFDEAQQAAFYEILHLPNLTEYQRNLFIQRLRDDPSVSLWVLGQAQILNDSQAPK
B8: CFH binding protein of SEQ ID NO: 11 (CID 209429) (designed binder)
chain: IAAKFDEAQQRAFYWILHLRNLTEEQRNAFIQSLRDDPSVSKEVLGEAYKLNKSQAPKIAAKFDEAQTAAFWEIWHLPNLTEEQRVAFIHSLQDDPSVSLEVLGEAQKLNDSQAPK
B9: CFH binding protein of SEQ ID NO: 12 (CID 209434) (designed binder)
chain: IAAKFDEAQQRAFYWILHLRNLTEEQRNAFIQSLRDDPSVSKEVLGEAYKLNVSQAPKIAAKFDEAQVAAFWEIWHLPNLTEEQRVAFIHSLQDDQSVSLEVLGEAQKLNDSQAPK
B10: CFH binding protein of SEQ ID NO: 21 (CID 209920) (designed binder)
chain: IAAKFDEAQQEAFYWILHLENLTEEQRNAFIQSLRDDPSVSEEVLGEALKLNVSQAPKIAAKFDEAQYAAFWEIQHLPNLTEEQRHAFIWSLLDDPSVSLEVLGEAQKLNDSQAPK
B11: CFH binding protein of SEQ ID NO: 22 (CID 209921) (designed binder)
chain: IAAKFDEAQQEWAFYHILHLYNLTEEQRNAFIQSLRDDPSVSQEVLGEAWKLNQSQAPKIAAKFDEAQYAAFWEIWHLPNLTEEQRWAFILSLHDDPSVSLEVLGEAQKLNDSQAPK
B12: SEQ ID NO 18 (designed binder)
chain: IAAKFDEAQWAAFYEIVHLPNLTEEQREAFIQSLWDDPSVSLEVLGEAQKLNDSQAPKIAAKFDEAQQAAFYEILHLPNLTERQRNWFIQQLRDDPSVSLTVLGRAQRLNDSQAPK
B13: CFH binding protein of SEQ ID NO: 19 (CID 209860) (designed binder)
chain: IAAKFDEAQWAAFEEIAHLPNLTEEQREAFIQSLWDDPSVSLEVLGEAQKLNDSQAPKIAAKFDEAQQAAFYEILHLPNLTERQRNWFIQRLRDDPSVSLWVLGRAQRLNDSQAPK
B14: CFH binding protein of SEQ ID NO: 10 (CID 209372) (designed binder)
chain: IAAKFDEAQWAAFYEIVHLPNLTEEQREAFIQSLWDDPSVSLEVLGEAQKLNDSQAPKIAAKFDEAQQAAFYEILHLPNLTEQQRNYFIQRLRDDPSVSLAVLGHAQKLNDSQAPK
B15: SEQ ID NO 16 (designed binder)
chain: IAAKFDEAQWAAFYEIVHLPNLTEEQREAFIQSLWDDPSVSLEVLGEAQKLNDSQAPKIAAKFDEAQQAAFYEILHLPNLTERQRNWFIQRLRDDPSVSLWVLGRAQRLNDSQAPK
B16: 209354 (protein)
chain: IAAKFDEAQWAAFYEIVHLPNLTEEQREAFIQSLWDDPSVSLEVLGEAQKLNDSQAPKIAAKFDEAQQAAFYEILHLPNLTEHQRNHFIQKLRDDPSVSLQVLGHAQRLNDSQAPK

For the first test, the target named is T1, recombinant human complement factor H (CFH), isolated from moss (human, UniProt P08603 19-1231).
T1 chain: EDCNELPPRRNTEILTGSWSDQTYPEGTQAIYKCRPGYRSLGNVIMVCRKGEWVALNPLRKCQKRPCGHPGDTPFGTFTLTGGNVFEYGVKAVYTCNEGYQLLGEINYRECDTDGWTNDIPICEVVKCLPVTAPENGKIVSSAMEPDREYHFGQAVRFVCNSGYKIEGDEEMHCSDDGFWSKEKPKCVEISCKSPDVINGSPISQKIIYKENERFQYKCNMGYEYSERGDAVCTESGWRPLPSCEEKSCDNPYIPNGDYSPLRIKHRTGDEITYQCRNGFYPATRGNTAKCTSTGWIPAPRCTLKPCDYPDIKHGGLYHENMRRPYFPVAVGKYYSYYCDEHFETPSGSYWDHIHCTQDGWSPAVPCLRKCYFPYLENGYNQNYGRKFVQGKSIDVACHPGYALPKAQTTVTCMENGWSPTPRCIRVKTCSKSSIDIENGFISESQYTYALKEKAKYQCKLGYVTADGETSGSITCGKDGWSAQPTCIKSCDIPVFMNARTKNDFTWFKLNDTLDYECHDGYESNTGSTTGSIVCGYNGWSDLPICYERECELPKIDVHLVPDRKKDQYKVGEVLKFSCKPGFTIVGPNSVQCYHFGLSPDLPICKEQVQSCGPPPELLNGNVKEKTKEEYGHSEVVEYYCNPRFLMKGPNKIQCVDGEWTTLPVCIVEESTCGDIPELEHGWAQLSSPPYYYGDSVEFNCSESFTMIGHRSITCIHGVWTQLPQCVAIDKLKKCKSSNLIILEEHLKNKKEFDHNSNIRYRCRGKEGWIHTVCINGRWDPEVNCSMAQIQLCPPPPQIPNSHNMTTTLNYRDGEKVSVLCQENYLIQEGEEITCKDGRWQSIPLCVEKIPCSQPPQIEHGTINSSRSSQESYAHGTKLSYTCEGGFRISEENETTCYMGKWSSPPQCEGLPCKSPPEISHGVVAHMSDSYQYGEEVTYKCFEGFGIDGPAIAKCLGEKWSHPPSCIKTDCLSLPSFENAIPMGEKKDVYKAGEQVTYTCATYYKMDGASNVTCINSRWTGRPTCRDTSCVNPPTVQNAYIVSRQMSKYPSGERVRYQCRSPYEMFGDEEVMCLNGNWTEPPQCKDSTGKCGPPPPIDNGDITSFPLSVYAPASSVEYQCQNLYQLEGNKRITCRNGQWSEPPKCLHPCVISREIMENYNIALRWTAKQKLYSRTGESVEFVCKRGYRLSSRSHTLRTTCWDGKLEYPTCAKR
Briefly: SPR; steady state. For orientation: In SPR one partner is held on a chip, and binding of the other changes the refractive index at the surface.
Usually Kd stands for the concentration at which binding is half-saturated. Take B1: the Kd came out at 114 nM.

For a further test, the target named is T1, recombinant human complement factor H …. Briefly: SPR; kinetic.
As for B2, the Kd is 97 nM.

For the molecule B3, the Kd came out at 286 nM.

Another test has the same target. As to the kind of experiment: BLI; steady state. On the technique in general: In BLI a coated tip is dipped into the sample, and binding shifts an interference pattern.
On to B4, for which the Kd is 26 nM.

Take B5: the equilibrium dissociation constant (Kd) was 25 nM.

Consider B6, for which the dissociation constant (Kd) was 31 nM.

For the molecule B7, the dissociation constant Kd is 31 nM.

As to B8, the equilibrium dissociation constant (Kd) turned out to be 460 nM.

For the molecule B9, the Kd came out at 900 nM.

For B10, the Kd came to 81 nM.

As to B11, the dissociation constant (Kd) came out at 39 nM.

In the case of B12, the dissociation constant Kd came to 238 nM.

B13: the Kd was found to be 225 nM.

With B14, the equilibrium dissociation constant (Kd) worked out at 750 nM.

For B15, the Kd amounted to 60 nM.

Take B16: the dissociation constant Kd is 740 nM.

Values taken from US20230416313A1 (published 2023).
